Among all 310,000 compounds or so, about 14,000 (4.5%) showed an effect of 50% or more. Effects have a minus sign here. The list shows a part of the results.
Biological target: human ether-à-go-go-related gene (hERG) potassium channel (human, UniProt Q12809)
Assay: primary screen, population patch clamp on CHO cells stably expressing hERG
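Note: peak tail current of the secondary pulse compared with the same well before compound.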

human ether-à-go-go-related gene (hERG) potassium channel, sequence (Q12809 whole entry, looked up): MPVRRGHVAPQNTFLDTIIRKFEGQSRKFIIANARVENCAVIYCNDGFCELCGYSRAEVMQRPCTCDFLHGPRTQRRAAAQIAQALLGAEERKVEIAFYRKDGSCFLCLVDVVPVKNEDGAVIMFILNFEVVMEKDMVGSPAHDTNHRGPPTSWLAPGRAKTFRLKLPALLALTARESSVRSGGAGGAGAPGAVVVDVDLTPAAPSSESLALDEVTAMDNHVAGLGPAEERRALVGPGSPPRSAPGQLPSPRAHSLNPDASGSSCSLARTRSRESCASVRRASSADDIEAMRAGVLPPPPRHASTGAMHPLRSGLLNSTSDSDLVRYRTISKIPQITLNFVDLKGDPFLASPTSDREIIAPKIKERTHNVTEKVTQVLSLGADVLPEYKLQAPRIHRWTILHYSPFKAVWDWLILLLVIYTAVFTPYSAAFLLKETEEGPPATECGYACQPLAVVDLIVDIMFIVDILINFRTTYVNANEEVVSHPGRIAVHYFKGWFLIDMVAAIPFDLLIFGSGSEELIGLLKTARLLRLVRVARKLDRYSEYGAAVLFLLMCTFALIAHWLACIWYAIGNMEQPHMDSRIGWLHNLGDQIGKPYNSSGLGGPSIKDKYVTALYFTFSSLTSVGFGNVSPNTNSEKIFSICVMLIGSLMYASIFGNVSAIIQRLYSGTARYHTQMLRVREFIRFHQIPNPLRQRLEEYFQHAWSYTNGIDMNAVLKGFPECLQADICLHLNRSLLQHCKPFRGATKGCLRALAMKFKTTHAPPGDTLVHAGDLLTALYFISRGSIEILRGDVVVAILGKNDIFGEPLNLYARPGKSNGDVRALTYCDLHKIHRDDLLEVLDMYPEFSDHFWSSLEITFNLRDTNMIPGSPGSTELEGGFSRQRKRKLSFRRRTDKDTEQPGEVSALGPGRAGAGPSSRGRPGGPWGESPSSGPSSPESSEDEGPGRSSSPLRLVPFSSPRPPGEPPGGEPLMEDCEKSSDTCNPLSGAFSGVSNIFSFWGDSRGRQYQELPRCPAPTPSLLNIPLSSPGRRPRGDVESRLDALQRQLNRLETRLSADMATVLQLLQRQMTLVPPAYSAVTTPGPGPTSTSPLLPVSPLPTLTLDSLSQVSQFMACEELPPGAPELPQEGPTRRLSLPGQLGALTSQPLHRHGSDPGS

SMILES	hERG current change (%, negative = inhibition) at 10uM [%]
Cc1ccccc1NC(=O)NCCCN1CCN(c2ccccc2)CC1	-50.7
Cc1ccc(C)c(-n2c(-c3csc(C)c3C)n[nH]c2=S)c1	11.7
N#Cc1c(SCC(=O)Nc2ccccc2C(F)(F)F)sc2c(O)cc(=O)[nH]c12	-6.01
CC(=O)O[C@H]1C[C@@]2(C)[C@@H](C[C@@H](O)[C@H]3[C@@]4(C)CC[C@@H](O)[C@@H](C)[C@@H]4CC[C@@]32C)/C1=C(\CCC=C(C)C)C(=O)[O-].[Na+]	-2.41
COCCCNC(=O)c1cccc(OC)c1OC	9.02
Cc1c(NC(=O)CN2C(=O)NC3(CCCCC3C)C2=O)cccc1[N+](=O)[O-] (stereo not shown)	-18.7
CSc1nc(-c2ccccc2)c(C#N)c(=O)n1C	-18.4
COc1ccc(CN2C(=O)c3ccccc3C(/C=N\OCc3ccc(C)cc3)C2=O)cc1 (stereo not shown)	8.84
Cc1ccc(C)c(NC(=O)CCC(=O)N/N=C/c2ccc[nH]2)c1	-4.41
O=C(COc1ccccc1)Nc1ccc(Cl)c(-c2nc3ncccc3o2)c1	12.4
CCC1CCCCN1CCCNC(=O)c1ccc(CS(=O)(=O)c2ccccc2OC)o1 (stereo not shown)	6.46
CC1(C)C2CCC(C2)C1C/C=N/NC(N)=S (stereo not shown)	0.967
COc1ccc(S(=O)(=O)NCC2CCCN(Cc3ccc(OC)cc3F)C2)cc1 (stereo not shown)	-42
Cc1ccc(S(=O)(=O)N2CCN(C(=O)c3ccc(Br)o3)CC2)c(C)c1	-55
CSc1nnc(-c2ccc(S(=O)(=O)N3CCCC3)cc2)n1C	-41.6
COc1ccc(NC(=O)C2CCCN(S(=O)(=O)c3c(C)n[nH]c3C)C2)cc1 (stereo not shown)	-1.21
COc1ccccc1-n1nnnc1SCC(=O)NC1CCCC1	9.18
Cc1ccc(C(NC(N)=O)c2ccccc2C)cc1 (stereo not shown)	-8.2
COc1ccc(NC(=O)N2CCOCC2)cc1OC	10.9
Cc1ccc(C(=O)COC(=O)CCN2C(=O)C3C4CCC(C4)C3C2=O)cc1[N+](=O)[O-] (stereo not shown)	-9.49
Cc1cccc(-n2nnc(C(=O)NCc3ccc4c(c3)OCO4)c2N)c1	1.39
COc1cc2nc(-c3cccs3)oc(=O)c2cc1OC	4.77
Sc1oc(-c2ccccc2)cc1C=Nc1ccccc1	-16.8
CCOc1ccccc1OCCCCN1CCCC1	-17.2
O=C(COc1ccc(Br)cc1)N1CCN(c2ccc([N+](=O)[O-])c(N3CCCCC3)c2)CC1	-14.1
O=C1/C(=N\S(=O)(=O)c2cccs2)C([n+]2ccccc2)=C([O-])c2ccccc21	33.6
CCOCC(=O)Nc1nnc(C2CCCCC2)s1	8.38
O=S(=O)(c1ccc(NCCc2c[nH]c3ccccc23)nc1)N1CCOCC1	-18.5

SMILES	hERG current change (%, negative = inhibition) at 10uM [%]
CC(=O)c1cc(CN2CCC(C(=O)Nc3cccc(-c4cscn4)c3)CC2)cs1	-30.5
CCOc1ccc(NCc2ccccc2OCc2cccc(F)c2)cc1.Cl	-3.71
CC(C)Oc1ccc(CSC(=N)N)cc1.Cl	-15.2
COc1ccc2cc(C(=O)NCCCN3CCCC3=O)[nH]c2c1	11.2
CC(=O)Nc1cccc(S(N)(=O)=O)c1C	18.5
COc1ccc(-c2cc(C(=O)N3CCOCC3)c3ccccc3n2)cc1OC	-22.7
NC(=O)CC12CC3CC(C1)CC(CC(N)=O)(C3)C2	-0.0946
CCOC(=O)[C@H]1[C@H]2COc3ccc(Br)cc3[C@@H]2N2C(=O)c3ccc(F)cc3NC(=O)[C@@]12C	-1.78
Cc1ccc(C)c2c1c1ccccc1n2C	0.543
COc1cc(CNC(C)C23CC4CC(CC(C4)C2)C3)cc(OC)c1OC.Cl (stereo not shown)	4.56
COc1ccc(C(=O)CC(=O)C(=O)Nc2ccc(C)cc2Cl)cc1	2.73
Cc1cc(C)n2nc(SCC(=O)N/N=C/c3ccc(F)cc3)nc2n1	-8.76
COc1ccccc1CSc1ncc(-c2ccc([N+](=O)[O-])cc2)[nH]1	-13.8
CSc1ccc(C2(O)Cc3cccc[n+]3C2c2ccccc2)cc1.[Br-] (stereo not shown)	-2.54
CN(C)CCN(Cc1cc2cc3c(cc2nc1Cl)OCO3)C(=O)c1ccco1	-6.26
Cc1ccc[n+](CC(=O)c2ccc(NC(=O)c3ccccc3)cc2)c1C	19.4
COc1ccc(NC(=O)C2CC(=O)N/C(=N/N=C/c3ccco3)S2)cc1 (stereo not shown)	-3.54
Cc1cc(OCC(=O)N2CCCCCC2)ccc1[N+](=O)[O-]	-4.46
Cc1ccc(-n2nc3c(=O)n(C(C)C(=O)NCc4ccc(Cl)cc4)nc(C)c3c2C)cc1 (stereo not shown)	-63.5
O=C(CSc1nnnn1-c1ccccc1)Nc1ncc2c(n1)CC(c1ccco1)CC2=O (stereo not shown)	-19
COCc1cc(C)nc(N2CCNCC2)c1C#N	7.28
O=C(c1ccc(OCC2CCCO2)cc1)N1CCN(c2ccccc2)CC1 (stereo not shown)	-2.93
CCO[C@H]1OC(C(=O)Nc2ccccc2)=C[C@@H](c2coc3ccccc3c2=O)[C@@H]1CCCO	-28.5
CC(C)(C)OC(=O)NCCc1n[nH]c(=S)o1	14.7
COc1ccc(S(N)(=O)=O)cc1C(=O)OCCCC(=O)c1ccccc1	-8.68
CCN(CC)CCNC(=O)c1ccc(NC(=O)c2cn(-c3ccc(F)cc3)nc2-c2cccc(OC)c2)cc1	-31.3
O=c1[nH]c(-c2ccccn2)nc(C(F)(F)F)c1Br	0.682

— publication PMC4336329 (PLoS ONE, 2015)
